# From PubChem BioAssay AID445 (National Center for Advancing Translational Sciences (NCATS), 2006)
# In all, about 110,000 compounds went through this assay and about 40 (0.04%) were called active. The inconclusive results got no clear call from the source; some entries with a clear call stand among them for comparison. The call rests on the fitted dose curve; in most records, active means well fitted curve in the direction sought with a large enough effect in the signal ratio (not every such curve was filed as active); inconclusive means small, poorly fitted or top-dose-only effect, or a change in a side signal; inactive means flat fitted curve, though single readings scatter; the % refers to the signal ratio. Potencies beside an inconclusive call are fits to weak or partial responses and may not hold up.
# Assay: IkB Signaling;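 on IkBa stabilization activation: 0% = basal untreated cells and 100% = reference inhibitor full response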
# Conditions: ABC-DLBCL IkBa-CBG/CBR dual luciferase ratio (green luciferase fused to IkBa over red control in OCI-Ly3 lymphoma cells), 4 h, scaled: untreated 0%
# Procedure, shortened: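 Luminescence ratio of IκBα-fused green versus native red beetle luciferase in OCI-Ly3 cells, 4 h post-doxycycline with compound; red signal alone, scaled from basal (0%) to zero light (-100%), flagged nonspecific or cytotoxic effects.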
# [1] = IkBa stabilization activation: at 57.1 µM (top of the series), proteasome inhibitor 100% unless noted
# Potency means the concentration at half of the fitted maximal effect.
structure (smiles),measurement,setting,value
CCOc1ccccc1OCCCC(=O)Nc1ccc(OC)nc1,IkBa stabilization activation,[1],inconclusive: 3.64% [signal inhibitor]
CCOC(=O)c1ccc(NC(=O)CC2C(=O)N(c3cccc(OC)c3)C(=O)N2C2CCCCC2)cc1 (configuration not stated),IkBa stabilization activation,[1],inconclusive: 2.14% [signal inhibitor]
Cn1c(=O)oc2cc(S(=O)(=O)NCc3ccncc3)ccc21,Potency,[1],"inconclusive: 15.8 µM [signal inhibitor, partial curve]"
CCSc1nnc(NC(=O)c2ccccn2)s1,Potency,[1],"inconclusive: 39.8 µM [falling, single point]"
CCCCNC(=O)c1cc2c(=O)n3cccc(C)c3nc2n(Cc2ccncc2)c1=N,IkBa stabilization activation,[1],inactive
CC(C)(C)OC(=O)N1CCC(c2c(C(=O)NCc3ccc(F)cc3)cnn2-c2ccc(F)cc2)CC1,IkBa stabilization activation,[1],inconclusive: 2.72% [signal inhibitor]
COc1ccc(OCC2c3cc(OC)c(OC)cc3CCN2C(=O)c2ccc(F)cc2)cc1 (configuration not stated),IkBa stabilization activation,[1],inconclusive: 1.4% [signal inhibitor]
Cc1ccc(-c2cn3c(n2)sc2cc(C(=O)NCCCN4CCCCC4)ccc23)cc1,IkBa stabilization activation,[1],inconclusive: 0.248% [signal inhibitor]
O=S(=O)(NCc1nc2cccnc2n1Cc1ccc(F)cc1)c1ccc2c(c1)CCCC2,IkBa stabilization activation,[1],inconclusive: 3.72% [signal inhibitor]
CCOC(=O)c1ccc(NC(=O)c2c(NCc3cccs3)sc3c2CCCCC3)cc1,IkBa stabilization activation,[1],inactive
Cc1cc(NC(=O)Cn2c(=O)nc(-c3ccccc3F)c3cc(Cl)ccc32)ccc1Br,IkBa stabilization activation,[1],inconclusive: 1.06% [signal inhibitor]
Nc1nc2sc3c(c2cc1C(=O)N1CCOCC1)CCCC3,IkBa stabilization activation,[1],inactive
O=c1c(/C=N/O)c(Nc2ccccc2)nc2ccccn12,IkBa stabilization activation,[1],inactive
Fc1ccc(-n2ncc3c(N4CCCCCC4)ncnc32)cc1,IkBa stabilization activation,[1],inactive
COc1ccc(NC(=O)c2ccco2)cc1NC(=O)COc1ccc(Cl)c(C)c1,IkBa stabilization activation,[1],inactive
O=C(CSc1nnc(-c2ccc(Br)cc2)n1C1CCCCC1)N1CCCC1,Potency,[1],"inconclusive: 1.58 µM [signal inhibitor, full curve]"
CC1CC(C)CN(CCCn2c(=S)[nH]c3ccccc3c2=O)C1 (configuration not stated),IkBa stabilization activation,[1],inactive
CCc1cccc(C)c1NC(=O)CCn1c(=O)c2cccn2c2ccccc21,IkBa stabilization activation,[1],inconclusive: 0.62% [signal inhibitor]
Cc1ccc(-c2nnn(CC(=O)N(CC(=O)NCC3CCCO3)c3ccccc3)n2)o1 (configuration not stated),IkBa stabilization activation,[1],inconclusive: 2.97% [signal inhibitor]
Cc1ccnc(Nc2nc(-c3c(C)nc4sccn34)cs2)c1,IkBa stabilization activation,[1],inconclusive: -8.06% [signal inhibitor]
CCOc1ccc(C(=O)Nc2c(C(=O)N3CCN(c4ccccc4F)CC3)oc3ccccc23)cc1,IkBa stabilization activation,[1],inconclusive: 1.93% [signal inhibitor]
COc1ccc(-c2cc(C(=O)NC(C(=O)O)C(C)C)c(C)o2)cc1OC (configuration not stated),IkBa stabilization activation,[1],inconclusive: -5.12% [signal inhibitor]
CCCn1c(SCC(=O)NCc2ccco2)nnc1C(C)C,Potency,[1],"inconclusive: 25.1 µM [rising, partial curve]"
CCOc1ccc(N2C(=O)c3n[nH]c(-c4cccs4)c3C2c2cccc(F)c2)cc1 (configuration not stated),IkBa stabilization activation,[1],inconclusive: -1.07% [signal inhibitor]
O=C(C1CC1)N1CCc2cc(Br)cc(S(=O)(=O)N3CCN(c4ccccn4)CC3)c21,IkBa stabilization activation,[1],inactive
COc1ccccc1NC(=O)Cn1nnc(C(=O)Nc2ccccc2)c1N,IkBa stabilization activation,[1],inactive
Cc1cc(NC(=O)c2ccccc2)ncc1NC(=O)c1ccco1,IkBa stabilization activation,[1],inactive
COc1cc(NC(=O)CCc2ccccc2)nc(OC)n1,IkBa stabilization activation,[1],inactive
Cc1ccccc1OCC(=O)Nc1cccc(N(C)S(C)(=O)=O)c1,IkBa stabilization activation,[1],inactive
CCOc1ccccc1CNC(=O)c1ccc2c(c1)nc1n2CCCCC1,IkBa stabilization activation,[1],inconclusive: 1.44% [signal inhibitor]
Cc1c(Nc2nc3ccccc3n3c(C)nnc23)cccc1C(=O)O,IkBa stabilization activation,[1],inconclusive: 7.03% [signal inhibitor]
COc1ccc(Br)cc1CNC(=O)CCSCc1ccc(C)cc1,IkBa stabilization activation,[1],inconclusive: 1.8% [signal inhibitor]
O=C(CS(=O)(=O)c1cccc2nsnc12)N1CCN(c2cccc(C(F)(F)F)c2)CC1,IkBa stabilization activation,[1],inconclusive: 5.18% [signal inhibitor]
O=C(Cn1cc(S(=O)(=O)c2ccccc2)c(=O)c2cc3c(cc21)OCO3)Nc1ccc(Cl)cc1,IkBa stabilization activation,[1],inconclusive: 9.19% [signal inhibitor]
CCNc1cc(N2CCN(C3CCCCC3)CC2)c2noc3c2c1C(=O)c1ccccc1-3,IkBa stabilization activation,[1],inconclusive: 1.92% [signal inhibitor]
O=C(CSc1nnc(-c2c[nH]c3ccccc23)o1)N1c2ccccc2CCc2ccccc21,IkBa stabilization activation,[1],inconclusive: 0.109% [signal inhibitor]
COC(=O)c1[nH]c2ccc(Br)cc2c1NC(=O)CN1CCN(C2CCCCC2)CC1,IkBa stabilization activation,[1],inconclusive: -4.26% [signal inhibitor]
CC(=O)C1=C(C)NC(=O)NC1c1ccccc1 (configuration not stated),IkBa stabilization activation,[1],inconclusive: 5.23% [signal inhibitor]
CCc1nnc(NC(=O)c2cccc(OC)c2)s1,IkBa stabilization activation,[1],inactive
Cc1ccc(-c2cc(-c3nnc(SCC(=O)N(C)CCC#N)n3N)c3ccccc3n2)cc1,IkBa stabilization activation,[1],inactive
O=C(O)Cc1sc(Nc2ccccc2)nc1-c1ccccc1,IkBa stabilization activation,[1],inconclusive: 4.38% [signal inhibitor]
CN(CCOc1ccc(C[C@H](Nc2ccccc2C(=O)c2ccccc2)C(=O)O)cc1)c1ccccn1,IkBa stabilization activation,[1],inconclusive: 1.21% [signal inhibitor]
same,IkBa stabilization activation,"at 57.1 µM (top of the series), proteasome inhibitor 100%",inactive: 11.4%
CCN(CC)c1ccc2c(c1)oc(=O)c1c(Cl)cc(=O)oc12,IkBa stabilization activation,[1],inconclusive: 15.8% [signal inhibitor]
Cc1nc2cnc(Oc3cccc(Cl)c3)nc2n(CCc2ccccc2)c1=O,IkBa stabilization activation,[1],"inactive: -0.639% [at 11.4 µM, scaled: untreated 0%, proteasome inhibitor 100%]"
COc1ccc(S(=O)(=O)NCCS(=O)(=O)N2CCN(c3ccccc3)CC2)cc1C,IkBa stabilization activation,[1],inconclusive: 2.31% [signal inhibitor]
COc1ccc(N2CCN(Cc3cccn3-c3nnc(N4CCN(C5CCCCC5)CC4)s3)CC2)cc1,IkBa stabilization activation,[1],inconclusive: 1.01% [signal inhibitor]
Cc1nc(SC(C)C(=O)Nc2ccccc2Cl)cc(-c2ccccc2)n1 (configuration not stated),IkBa stabilization activation,[1],inconclusive: 0.943% [signal inhibitor]
CCOc1ccc(-n2nc(CO)c(C(=O)NCc3cccs3)n2)cc1,IkBa stabilization activation,[1],inconclusive: -0.836% [signal inhibitor]
CC(Oc1ccc(Br)cc1)C(=O)Nc1ncn[nH]1 (configuration not stated),IkBa stabilization activation,[1],inconclusive: -1.56% [signal inhibitor]
Cc1ccc(C)c(NC(=O)C2CCCN(S(=O)(=O)c3cn(C)cn3)C2)c1 (configuration not stated),IkBa stabilization activation,[1],inactive
CCn1cc(C(=O)N2CCN(C(=O)c3ccco3)CC2)c2cc(OC)c(OC)cc2c1=O,IkBa stabilization activation,[1],inactive
CCCCNc1nc2c(c(=O)n(C)c(=O)n2C)n1CC(O)COc1ccccc1C (configuration not stated),IkBa stabilization activation,[1],inconclusive: 4.65% [signal inhibitor]
CCOC(=O)c1c(NC(=O)c2ccc(Br)cc2)sc2c1CCCC2,IkBa stabilization activation,[1],inconclusive: 4.43% [signal inhibitor]
COc1cccc(N2CCN(Cc3nc(N)nc(N4CCCc5ccccc54)n3)CC2)c1,Potency,[1],"inconclusive: 39.8 µM [signal inhibitor, single point]"
C=C1C(=O)O[C@@H]2[C@H]3O[C@]3(C)CCC=C(C)CC[C@@H]12,IkBa stabilization activation,[1],"inactive: 12% [at 11.4 µM, scaled: untreated 0%, proteasome inhibitor 100%]"
same,Potency,[1],"inconclusive: 7.94 µM [signal inhibitor, single point]"
COc1ccc(C(=O)Nc2nnc(S(=O)(=O)N3CCCc4ccccc43)s2)cc1,IkBa stabilization activation,[1],inconclusive: 4.12% [signal inhibitor]
OC[C@H](CCc1c[nH]c2ccccc12)c1c[nH]c2ccccc12,IkBa stabilization activation,[1],"inactive: -0.155% [at 11.4 µM, scaled: untreated 0%, proteasome inhibitor 100%]"
CCOc1ccccc1-n1nnc(-c2nc(-c3ccccc3C)no2)c1C,IkBa stabilization activation,[1],inactive
Cc1ccc2nc(-c3cccc(NC(=O)c4ccc(Br)o4)c3)oc2c1,IkBa stabilization activation,[1],inconclusive: 5.09% [signal inhibitor]
NC(=O)N[C@H]1NC(=O)NC1=O,IkBa stabilization activation,[1],inactive
Cc1ccc(NC(=O)CSc2ccc3nnc(CCNS(=O)(=O)c4ccccc4)n3n2)cc1Cl,IkBa stabilization activation,[1],inconclusive: 0.554% [signal inhibitor]
Cc1ccccc1NC(=O)CSc1nnc(COc2ccc(Cl)cc2)o1,Potency,[1],inconclusive: 15.8 µM [signal inhibitor]
CN(C)CCNC(=O)c1ccc2c(c1)N(Cc1ccccc1)C(=O)c1ccccc1S2(=O)=O,IkBa stabilization activation,[1],inconclusive: 0.263% [signal inhibitor]
CC(=O)C1C(=O)CC(C)(O)C(C(C)=O)C1c1ccc(N(C)C)cc1 (configuration not stated),IkBa stabilization activation,[1],inactive
CCCSc1ncc(Cl)c(C(=O)NCc2ccc(OC)cc2)n1,IkBa stabilization activation,[1],inconclusive: -1.13% [signal inhibitor]
COc1cccc(-c2cc(C(=O)Nc3cc(OC)c(OC)c(OC)c3)no2)c1,IkBa stabilization activation,[1],inconclusive: 16.8% [signal inhibitor]
O=C(Cn1cc(C(=O)c2ccncc2)c(=O)c2cc(F)ccc21)Nc1ccc(Cl)cc1,IkBa stabilization activation,[1],inconclusive: 17.4% [signal inhibitor]
O=C1c2[nH]nc(-c3ccccc3O)c2C(c2cccc(O)c2)N1Cc1ccncc1 (configuration not stated),IkBa stabilization activation,[1],inconclusive: 2.45% [signal inhibitor]
CC1=C(C#N)c2nc(N)c(C#N)c(C)c2/C1=C\c1ccccc1,IkBa stabilization activation,[1],inconclusive: 14.2%
Cc1ccc2c(c1)N(S(=O)(=O)c1cc(-c3onc(C)c3C)ccc1C)CCO2,IkBa stabilization activation,[1],inconclusive: 4.84% [signal inhibitor]
